One block for each compound: values may come before it.
Legend:
[1] = test system: established tumors in MMTVneu mice; assay: MMTVneu oncomouse breast cancer model, IDO inhibitor plus signal transduction inhibitor; type: in vivo, mouse; conditions: two week course; 1MT 20 mg/day by subcutaneous time-release pellets
[2] = test system: tumor growth in a mouse model; conditions: Friberg et al. 2002; U.S. Pat. No. 6,482,416; cited from earlier work
[3] = HPLC analysis of mouse serum for level of compound; conditions: male, FVB, sc, Serum concentration of 1MT, 2×140 mg 1MT pellets implanted subcutaneously, male FVB mice
human IDO = human IDO (Homo sapiens, UniProt P14902); assay: IDO enzyme assay, kynurenine production, enzyme kinetics; type: biochemical; conditions: from Ki values
Sequence of UniProt P14902 (P14902 whole entry): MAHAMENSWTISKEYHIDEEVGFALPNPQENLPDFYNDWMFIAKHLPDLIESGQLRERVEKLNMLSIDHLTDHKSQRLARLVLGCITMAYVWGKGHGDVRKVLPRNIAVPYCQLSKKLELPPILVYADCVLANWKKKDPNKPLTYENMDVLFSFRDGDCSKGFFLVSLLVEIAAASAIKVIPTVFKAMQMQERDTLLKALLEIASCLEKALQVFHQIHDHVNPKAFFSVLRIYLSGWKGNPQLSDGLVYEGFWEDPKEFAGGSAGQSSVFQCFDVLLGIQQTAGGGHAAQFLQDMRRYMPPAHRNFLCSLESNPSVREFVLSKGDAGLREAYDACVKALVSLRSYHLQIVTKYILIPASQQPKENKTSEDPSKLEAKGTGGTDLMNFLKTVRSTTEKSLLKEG

[4] = test system: established tumors in MMTVneu mice; assay: MMTVneu oncomouse breast cancer model, IDO inhibitor plus cytotoxic chemotherapeutic agent; type: in vivo, mouse; conditions: two week course; 1MT 20 mg/day pellets; paclitaxel or cisplatin i.v. at maximum-tolerated doses
Description: Each data point was determined from an individual mouse and the bars indicate the mean of the data points as listed at the bottom of the graph.
The MMTVneu transgenic “oncomouse” model of breast cancer was also used to measure the effects of IDO inhibition and cytotoxic chemotherapeutic agents on tumor pathophysiology.
MMTVneu “oncomice” bearing similarly sized tumors of ˜150 mm^3 were randomly assigned to control or experimental treatment groups. Control mice were implanted with placebo time-release pellets (Innovative Research, Inc., Sarasota, Fla.).
The cytotoxic chemotherapeutic agents were prepared and delivered to the mice as follows. Paclitaxel was dissolved in equal volumes of absolute ethanol and the clinically-used solubilizing agent Cremophor® EL. The solution was sonicated up to 30 minutes and stored as a 20 mg/ml stock solution at 4° C. for up to one week. Before use, this solution was diluted further at 1:5 with sterile physiological saline. Paclitaxel formulated in this manner was administered to mice by a single bolus intravenous (i.v.) injection into the tail vein. Mouse tails can be warmed to facilitate identification and injection of the vein. […] The MTD of cisplatin (1 mg/kg) was obtained as a clinical preparation in saline and delivered as a bolus i.v. injection on the same schedule. […]

SMILES: CC[C@H](C)[C@@H](CO[C@@H](Cc1ccccc1)C(=O)N[C@@H](CCS(C)(=O)=O)C(=O)OC(C)C)NC[C@@H](N)CS [L-744,832]
Effect on tumor growth [1]: retarded but did not block tumor growth

concentration at 3 days [3]: 104 µM
SMILES: Cn1cc(CC(N)C(=O)O)c2ccccc21 (racemic) [1MT, 1-methyl-DL-tryptophan]
Effect on tumor growth [2]: only retarded and did not prevent tumor growth

Potency of direct IDO enzyme inhibition relative to 1MT (human IDO): about 3 fold
SMILES: CN1C(=O)C(Cc2c[nH]c3ccccc23)NC1=S (stereo not drawn) [MTH-Trp, 3-(N-methyl-thiohydantoin)-indole]

SMILES: CC(=O)O[C@H]1C(=O)[C@@]2(C)[C@H]([C@H](OC(=O)c3ccccc3)[C@]3(O)C[C@H](OC(=O)[C@H](O)[C@@H](NC(=O)c4ccccc4)c4ccccc4)C(C)=C1C3(C)C)[C@]1(OC(C)=O)CO[C@@H]1C[C@@H]2O [Taxol, paclitaxel]
Effect on tumor growth [4]: retarded but did not block tumor growth

SMILES: N.N.[Cl][Pt][Cl] [Cisplatin, cisplatin]
Effect on tumor growth [4]: retarded but did not block tumor growth

Source: patent US8383613B2, “Methods for the treatment of cancer” (Lankenau Institute for Medical Research, priority 2003, dated 2013)
